Hit rate of the full screen: of about 45,000 compounds, about 65 (0.1%) were called active. Calls follow the shape of the dose curve; as a rule, active = well fitted activation curve with a large enough effect; inconclusive = small, poorly fitted or top-dose-only effect; inactive = no such curve, though single readings can be large or run the other way. The list shows a part of the results.

Chain of UniProt P54803 (P54803 whole entry, looked up): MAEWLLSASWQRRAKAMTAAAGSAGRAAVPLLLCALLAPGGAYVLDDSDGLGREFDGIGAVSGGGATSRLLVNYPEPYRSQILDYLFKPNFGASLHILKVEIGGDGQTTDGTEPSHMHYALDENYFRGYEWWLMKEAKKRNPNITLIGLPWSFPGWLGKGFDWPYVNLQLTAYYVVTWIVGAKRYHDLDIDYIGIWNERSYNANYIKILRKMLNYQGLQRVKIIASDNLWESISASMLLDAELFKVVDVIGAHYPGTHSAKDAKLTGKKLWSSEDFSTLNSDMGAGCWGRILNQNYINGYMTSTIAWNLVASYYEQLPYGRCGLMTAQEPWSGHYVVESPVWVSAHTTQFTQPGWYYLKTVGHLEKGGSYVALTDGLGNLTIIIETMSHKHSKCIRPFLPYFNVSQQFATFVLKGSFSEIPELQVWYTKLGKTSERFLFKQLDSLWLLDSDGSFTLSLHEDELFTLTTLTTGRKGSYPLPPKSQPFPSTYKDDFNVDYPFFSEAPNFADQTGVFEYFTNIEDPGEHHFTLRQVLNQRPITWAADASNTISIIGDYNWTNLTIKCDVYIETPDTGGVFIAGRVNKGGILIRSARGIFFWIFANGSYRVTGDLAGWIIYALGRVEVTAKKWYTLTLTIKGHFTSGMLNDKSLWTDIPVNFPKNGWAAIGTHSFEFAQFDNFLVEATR

This test has as its target Galactocerebrosidase (Homo sapiens) (UniProt P54803). Briefly: A Novel Cell-Based Assay to Identify Small Molecules for B -Galactocerebrosidase. Also: 0% is about no effect; nearly all actives have a fitted effect of over 65% in size. As to conditions: 145M-Twi-hGALC-G270D cells (Twitcher mouse brain line with human GALC G270D), HMU-beta-Gal fluorescence, 48 h; series mostly up to 57.5 µM; activation: at the top concentration. Put shortly:
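Live 145M-Twi cells (Twitcher mouse brain-derived, GALC-null) stably expressing human GALC-G270D, with a wild-type GALC line, were compound-treated. Residual GALC activity was then read as fluorescence from 0.1 mM final HMU-β-gal at pH 5.2; higher signal means activation.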
Turning to `CC1CN(S(=O)(=O)c2ccc3c(c2)NC(=O)CC(=O)N3)c2ccccc2O1` (stereo not drawn), the “activation” value was inactive: -11.5%. The result for `CCOC(=O)c1ccc(NC(=O)COC(=O)c2cn(CC)c3nc(C)ccc3c2=O)cc1` reads inactive: 9.1%; that for `COc1ccccc1-n1nc(-c2ccccc2)c2cnc3cc(C(F)(F)F)ccc3c21`, inactive: -1.29%. Next, `Cc1ccc(C)c(CN2C(=O)c3ccccc3S(=O)(=O)c3ccc(C(=O)N4CCN(c5ccccc5F)CC4)cc32)c1`: inactive: -13.9%; `CCOC(=O)c1ccc(C#Cc2ccc3c(c2)C(C)(C)CCS3)nc1`: inactive: -18.5%.

On to `COc1ccc(CNC(=O)CCc2nnc3n(CC(C)C)c(=O)c4ccccc4n23)cc1`, for which the “activation” value was inactive: -2.89%. For the molecule `COc1cccc(NC(=O)Cn2c(=O)n(CCCCC(=O)NCCc3ccccc3)c(=O)c3ccccc32)c1`, the “activation” value was inactive: -13.1%. The result for `CCOC(=O)C1=C(CN2CCN(c3cc(C)ccc3C)CC2)NC(=O)NC1c1ccc(Cl)cc1` (stereo not drawn) reads inactive: -13.9%; that for `CCS(=O)(=O)N1CCc2cc(C(=O)Nc3cc(C(F)(F)F)ccc3Cl)ccc21`, inactive: -11.7%. The result for `COc1ccc(C)cc1NS(=O)(=O)c1ccc2[nH]c(=O)c(=O)[nH]c2c1` reads inactive: -11.8%. Take `CCn1ccc2cc(S(=O)(=O)N3CCCN(C(=O)NCCOC)CC3)ccc21`: the “activation” value was inactive: -4.51%. As for `O=C(NCc1cccnc1)C(=O)NCC(c1cccnc1)N1CCN(c2ccccc2)CC1` (stereo not drawn), the “activation” value was inactive: -1.21%. Consider `CCc1cc2c(cc3c(=O)n(CC(=O)N4CCN(c5cc(Cl)ccc5C)CC4)nc(CC)n32)s1`, for which the “activation” value was inactive: -11.4%. Next, `CC(C)CCNc1nc2c(S(=O)(=O)c3ccc(Br)cc3)nnn2c2ccsc12`: inactive: 11.8%. The result for `CCc1ccc(-n2nc(C)c3c(C)cc(=O)n(CC(=O)NCc4ccc(C)cc4)c32)cc1` reads inactive: -16.3%; that for `CCc1ccc(NC(=O)CSc2nc(C)cc(COC)c2C#N)cc1`, inactive: -18.6%. Next, `CCOc1ccc(NC(=O)Cn2c(=O)n(CC3CCCO3)c(=O)c3ccccc32)cc1` (stereo not drawn): inactive: -3.24%; `CCOc1ccc2nc(N3CCCC(C(=O)NCc4ccccc4Cl)C3)sc2c1` (stereo not drawn): inactive: -7.99%; `COc1ccc2cc(C(=O)NCc3ccc4c(c3)CCN4C(=O)c3ccc(C)cc3)[nH]c2c1`: inactive: -6.82%. In the case of `C=Cc1ccc(Cn2c(=O)n(-c3ccc(C)cc3)c(=O)c3c2c2cc(OC)ccc2n3C)cc1`, the “activation” value is inactive: -17.7%.

On to `O=C(NCc1ccccc1)C1CCN(C(=O)c2cnn(-c3ccccc3)c2-n2cccc2)CC1`, for which the “activation” value was inactive: 2.98%. In the case of `CCOC(=O)c1cccc(NC(c2nnc(-c3ccccc3)o2)c2ccccc2F)c1` (stereo not drawn), the “activation” value is inactive: -9.77%. In the case of `Cc1ccc(C)c(N2CCN(c3nc4ccccc4c4nc(-c5cccnc5)nn34)CC2)c1`, the “activation” value was inactive: -16%.

On to `NC(N)=NCCN1CCCCCCC1`, for which the activation is inactive: -17.2% [at 0.46 µM].

On to `CC(C)C(=O)Nc1cccc(NC2=NS(=O)(=O)c3ccccc32)c1`, for which the “activation” value was inactive: -12.5%. In the case of `CCc1ccc(C2=CC(c3cccc(Br)c3)n3nnnc3N2)cc1` (stereo not drawn), the “activation” value was inactive: -14.9%. Regarding `Cc1ccc2c(c1)c(=O)c(C(=O)c1ccncc1)cn2CC(=O)Nc1ccccc1Cl`, the “activation” value is inactive: -7.21%.

For the molecule `Cc1ccc(C)c(Cn2c(C)c(CNCc3ccc(F)cc3)c(C(=O)O)c2C)c1`, the “activation” value was inactive: -11.8%. As to `COc1ccc(CCNC(=O)CCCCCn2c(=O)[nH]c3cc(OC)c(OC)cc3c2=O)cc1OC`, the “activation” value is inactive: -10%.

`CC1=C(C(=O)Nc2ccc(C)cc2C)C(c2cccn2C)n2ncnc2N1` (stereo not drawn): the “activation” value was inactive: -8.62%. For the molecule `CC(=O)Nc1nnc(SCc2cc(=O)c3cccc(C)c3[nH]2)s1`, the “activation” value was inactive: -11.2%. Next, `COc1ccc(NC(=O)CSc2nc(O)c(C/C=C/c3ccccc3)c(=O)[nH]2)cc1`: inactive: -15.4%; `Cc1ccc(CNC(=O)C2CCCN(c3nnc(-n4c(C)ccc4C)s3)C2)cc1` (stereo not drawn): inactive: 0.0294%. The result for `CCSc1nc(-c2ccc(Cl)cc2)nc2c1Cc1c(CO)cnc(C)c1O2` reads inactive: -2.14%. For the molecule `COc1ccccc1CNC(=O)CCC1N=C2c3ccccc3N=C(SCc3ccccc3Cl)N2C1=O` (stereo not drawn), the “activation” value was inactive: -1.27%. Next, `CC1=C(c2ccc(Cl)cc2)S(=O)(=O)N=C1N1CCN(c2cccc(C(F)(F)F)c2)CC1`: inactive: -0.0591%; `COc1ccc(-c2cc(C(F)(F)F)n3nc(C(=O)Nc4cccc(C(F)(F)F)c4)c(Br)c3n2)cc1`: inactive: -2.02%; `CCOC(=O)c1sc2ccccc2c1S(=O)(=O)NCc1ccc(F)cc1`: inactive: -8.32%.

Consider `COC(=O)c1cnc(N2CCN(c3ccccc3OC)CC2)c2ccccc12`, for which the “activation” value is inactive: -11.1%. Next, `CCOC(=O)c1ccc(NC(=O)CCn2cnnn2)cc1`: inactive: -12.4%. As for `Cc1ccc(NC(c2nnc(-c3ccccc3)o2)c2ccccc2F)c([N+](=O)[O-])c1` (stereo not drawn), the “activation” value is inactive: -3.48%. The result for `Cc1ccc(-n2nnnc2CNC(=O)c2ccccc2F)cc1C` reads inactive: -13.3%; that for `CCN1CCCC1CNC(=O)c1cc(S(=O)(=O)CC)c(N)cc1OC` (stereo not drawn), inactive: -6.23%. In the case of `Nc1nc(N)nc(-c2cc(Cl)ccc2Cl)n1`, the “activation” value was inactive: -5.23%.

For the molecule `O=C(NCc1ccccc1Cl)c1ccc(CSCc2cccc(F)c2)o1`, the “activation” value was inactive: 5.69%. For `O=C(NCc1ccc(Cl)cc1)c1ccc2c(c1)NC(=O)C(CS(=O)(=O)Cc1ccccc1Cl)N2` (stereo not drawn), the “activation” value is inactive: -27.7%.

`CCn1c(=O)c2cc(C(=O)NCCCN(C)Cc3ccccc3)sc2c2ccccc21`: the “activation” value was inactive: -6.95%. Take `CCc1cccc(NC(=O)Cn2cc(C(=O)c3ccncc3)c(=O)c3cc(C)c(C)cc32)c1`: the “activation” value is inactive: -37.3%.

For the origin of these results see PubChem BioAssay AID1159614 (National Center for Advancing Translational Sciences (NCATS), 2016).
